# The other results are listed elsewhere or left out.
# B1: CAA (Caragana arborescens) (protein)
# chain: VAVEFDTFDNPDWDPRTKHIGIDVNSIRSNKTTQWGFWNRQVADVDISYEASSKTLNVSLYYPGESYIVTDVVDLKDILPEWVRIGF
# Experiments:
# Assay in all cases: glycan array binding signal (z-score within array); higher = stronger binding
# Settings in all cases: glycan notation: IUPAC condensed, linker removed
# [1] = biological target: Neu5Ac(a2-6)Gal(b1-4)GlcNAc(b1-2)Man(a1-6)[GlcNAc(b1-2)Man(a1-3)]Man(b1-4)GlcNAc(b1-4)GlcNAc
# Outline: (§1)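 From the Consortium for Functional Glycomics database, 3228 arrays were curated, keeping only those whose protein sequence was available. Binding is given as a within-array Z-score averaged across arrays sharing a protein sequence and across linkers. Negative Z-scores can be read as non-binding.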
# [2] = biological target: Neu5Ac(a2-6)Gal(b1-4)GlcNAc(b1-2)Man(a1-6)[Man(a1-3)]Man(b1-4)GlcNAc(b1-4)GlcNAc
# Outline: as §1
# [3] = biological target: Neu5Ac(a2-6)Gal(b1-4)GlcNAc(b1-2)[Neu5Ac(a2-6)Gal(b1-4)GlcNAc(b1-4)]Man(a1-3)[GlcNAc(b1-4)][Neu5Ac(a2-6)Gal(b1-4)GlcNAc(b1-2)[Neu5Ac(a2-6)Gal(b1-4)GlcNAc(b1-6)]Man(a1-6)]Man(b1-4)GlcNAc(b1-4)GlcNAc
# Outline: as §1
# [4] = biological target: Neu5Ac(a2-6)Gal(b1-4)GlcNAc(b1-2)[Neu5Ac(a2-6)Gal(b1-4)GlcNAc(b1-4)]Man(a1-3)[GlcNAc(b1-4)][Neu5Ac(a2-6)Gal(b1-4)GlcNAc(b1-4)Man(a1-6)]Man(b1-4)GlcNAc(b1-4)GlcNAc
# Outline: as §1
# [5] = biological target: Neu5Ac(a2-6)Gal(b1-4)GlcNAc(b1-2)[Neu5Ac(a2-6)Gal(b1-4)GlcNAc(b1-6)]Man(a1-6)[Neu5Ac(a2-6)Gal(b1-4)GlcNAc(b1-2)Man(a1-3)][GlcNAc(b1-4)]Man(b1-4)GlcNAc(b1-4)GlcNAc
# Outline: as §1
# [6] = biological target: Neu5Ac(a2-6)Gal(b1-4)GlcNAc(b1-3)Gal(b1-3)GlcNAc
# Outline: as §1
# [7] = biological target: Neu5Ac(a2-6)Gal(b1-4)GlcNAc(b1-3)Gal(b1-4)GlcNAc
# Outline: as §1
# [8] = biological target: Neu5Ac(a2-6)Gal(b1-4)GlcNAc(b1-3)Gal(b1-4)GlcNAc(b1-2)Man(a1-3)[Neu5Ac(a2-6)Gal(b1-4)GlcNAc(b1-3)Gal(b1-4)GlcNAc(b1-2)Man(a1-6)]GalNAc
# Outline: as §1
# [9] = biological target: Neu5Ac(a2-6)Gal(b1-4)GlcNAc(b1-3)Gal(b1-4)GlcNAc(b1-3)Gal(b1-4)GlcNAc
# Outline: as §1
# [10] = biological target: Neu5Ac(a2-6)Gal(b1-4)GlcNAc(b1-3)Gal(b1-4)GlcNAc(b1-3)Gal(b1-4)GlcNAc(b1-2)Man(a1-3)[Neu5Ac(a2-6)Gal(b1-4)GlcNAc(b1-3)Gal(b1-4)GlcNAc(b1-3)Gal(b1-4)GlcNAc(b1-2)Man(a1-6)]GalNAc
# Outline: as §1
# [11] = biological target: Neu5Ac(a2-6)Gal(b1-4)GlcNAc(b1-3)Gal(b1-4)GlcNAc(b1-3)GalNAc
# Outline: as §1
# [12] = biological target: Neu5Ac(a2-6)Gal(b1-4)GlcNAc(b1-3)Gal(b1-4)GlcNAc(b1-3)[Neu5Ac(a2-6)Gal(b1-4)GlcNAc(b1-3)Gal(b1-4)GlcNAc(b1-6)]GalNAc
# Outline: as §1
# [13] = biological target: Neu5Ac(a2-6)Gal(b1-4)GlcNAc(b1-3)Gal(b1-4)GlcNAc(b1-6)[Gal(b1-3)]GalNAc
# Outline: as §1
# [14] = biological target: Neu5Ac(a2-6)Gal(b1-4)GlcNAc(b1-3)Gal(b1-4)[Fuc(a1-3)]GlcNAc(b1-3)Gal(b1-4)[Fuc(a1-3)]GlcNAc
# Outline: as §1
# [15] = biological target: Neu5Ac(a2-6)Gal(b1-4)GlcNAc(b1-3)GalNAc
# Outline: as §1
# [16] = biological target: Neu5Ac(a2-6)Gal(b1-4)GlcNAc(b1-3)[Neu5Ac(a2-6)Gal(b1-4)GlcNAc(b1-6)]GalNAc
# Outline: as §1
# [17] = biological target: Neu5Ac(a2-6)Gal(b1-4)GlcNAc(b1-6)GalNAc
# Outline: as §1
# [18] = biological target: Neu5Ac(a2-6)Gal(b1-4)GlcNAc(b1-6)[Gal(b1-3)GlcNAc(b1-3)]Gal(b1-4)Glc
# Outline: as §1
# [19] = biological target: Neu5Ac(a2-6)Gal(b1-4)GlcNAc(b1-6)[Gal(b1-3)]GalNAc
# Outline: as §1
# [20] = biological target: Neu5Ac(a2-6)Gal(b1-4)GlcNAc6S
# Outline: as §1
# [21] = biological target: Neu5Ac(a2-6)GalNAc
# Outline: as §1
# [22] = biological target: Neu5Ac(a2-6)GalNAc(b1-4)GlcNAc
# Outline: as §1
# [23] = biological target: Neu5Ac(a2-6)GalNAc(b1-4)GlcNAc6S
# Outline: as §1
binder,measurement,setting,value
B1,glycan array binding signal (z-score),[1],5.95
same,glycan array binding signal (z-score),[2],0.262
same,glycan array binding signal (z-score),[3],-0.125
same,glycan array binding signal (z-score),[4],-0.245
same,glycan array binding signal (z-score),[5],-0.254
same,glycan array binding signal (z-score),[6],-0.255
same,glycan array binding signal (z-score),[7],-0.246
same,glycan array binding signal (z-score),[8],-0.184
same,glycan array binding signal (z-score),[9],-0.242
same,glycan array binding signal (z-score),[10],-0.137
same,glycan array binding signal (z-score),[11],-0.261
same,glycan array binding signal (z-score),[12],-0.147
same,glycan array binding signal (z-score),[13],-0.252
same,glycan array binding signal (z-score),[14],-0.245
same,glycan array binding signal (z-score),[15],-0.243
same,glycan array binding signal (z-score),[16],-0.251
same,glycan array binding signal (z-score),[17],-0.236
same,glycan array binding signal (z-score),[18],-0.246
same,glycan array binding signal (z-score),[19],-0.247
same,glycan array binding signal (z-score),[20],-0.24
same,glycan array binding signal (z-score),[21],-0.245
same,glycan array binding signal (z-score),[22],-0.241
same,glycan array binding signal (z-score),[23],-0.257

# From the supplement of paper PMC8728848
